Consider 26 compounds from the antibiotic and cytotoxicity screens of Wong et al. (2023).

The other results are listed elsewhere or left out.

For one test, the system named is HSkMC. As to the kind of experiment: cytotoxicity call (relative viability < 0.9). The following applies: 10 µM.
Another test deals with HepG2. As to the kind of experiment: cytotoxicity call (relative viability < 0.9). The settings on record: 10 µM.
For another test, the system named is S. aureus RN4220. As to the kind of experiment: growth inhibition call (relative growth <= 0.2). The following applies: 50 µM.

Take `C[C@H]1CN([C@@H](C)CO)C(=O)c2cccc(NS(=O)(=O)c3cn(C)cn3)c2O[C@H]1CN(C)C(=O)Nc1ccccc1`: the cytotoxicity call in the test on HSkMC and in the test with HepG2 was “inactive” each time. In addition, the growth inhibition call in the test with S. aureus RN4220 was “inactive”.

On to `Cc1ccc(S(=O)(=O)Nc2cccc3c2O[C@@H](CN(C)Cc2ccc(C(F)(F)F)cc2)[C@@H](C)CN([C@@H](C)CO)C3=O)cc1`, for which the cytotoxicity call in the test with HSkMC and with HepG2 was “inactive” throughout. In addition, the growth inhibition call in the test on S. aureus RN4220 is “inactive”.

In the case of `CN1C(=O)c2cc(NC(=O)c3cnccn3)ccc2OC[C@H]2O[C@@H](CC(=O)N[C@H]3CCN(Cc4ccccc4)C3)CC[C@@H]21`, the cytotoxicity call with HSkMC and in the test on HepG2 was “inactive” in each case. In addition, in the test on S. aureus RN4220, the growth inhibition call was “inactive”.

For the compound `C[C@H]1CN([C@@H](C)CO)C(=O)c2cccc(NC(=O)Nc3ccc4c(c3)OCO4)c2O[C@@H]1CN(C)C(=O)Nc1ccc(C(F)(F)F)cc1`, the cytotoxicity call in the test on HSkMC and in the test with HepG2 was “inactive” in each case. Further, in the test on S. aureus RN4220, the growth inhibition call is “inactive”.

Consider `C[C@@H]1CN([C@H](C)CO)C(=O)Cc2cc(NC(=O)Cn3cnnn3)ccc2O[C@@H]1CN(C)Cc1ccc(Oc2ccccc2)cc1`, for which the cytotoxicity call in the test with HSkMC and in the test with HepG2 was “inactive” in each case. In addition, the growth inhibition call in the test on S. aureus RN4220 is “inactive”.

With `COc1ccc(NC(=O)N(C)C[C@H]2Oc3ccc(NC(=O)CCN4CCOCC4)cc3CC(=O)N([C@H](C)CO)C[C@@H]2C)cc1`, the cytotoxicity call in the test on HSkMC and in the test with HepG2 was “inactive” each time. Moreover, the growth inhibition call in the test with S. aureus RN4220 was “inactive”.

Regarding `NC(=O)c1c(N)c(C(N)=S)n2c1CCC2`, the cytotoxicity call in the test with HSkMC and in the test with HepG2 was “inactive” each time. The growth inhibition call with S. aureus RN4220 was “inactive”.

Turning to `C[C@@H]1CCCCO[C@H](CN(C)S(=O)(=O)c2cccs2)[C@H](C)CN([C@@H](C)CO)C(=O)c2cc(NS(=O)(=O)c3ccc(Cl)cc3)ccc2O1`, the cytotoxicity call with HSkMC is “inactive”. Moreover, the cytotoxicity call in the test on HepG2 was “active”. Further, the growth inhibition call in the test on S. aureus RN4220 was “inactive”.

In the case of `COc1ccc(S(=O)(=O)Nc2ccc3c(c2)[C@H]2C[C@H](CC(=O)NCC4CC4)O[C@@H](CO)[C@H]2O3)cc1`, the cytotoxicity call in the test with HSkMC and with HepG2 was “inactive” each time. Further, in the test on S. aureus RN4220, the growth inhibition call was “inactive”.

For `ON=C1/C(=N\O)CC2(C/C1=N/O)OCCO2`, the cytotoxicity call with HSkMC and in the test on HepG2 was “inactive” each time. For the same compound, in the test on S. aureus RN4220, the growth inhibition call is “inactive”.

For `C=C(C)C1COc2cc3oc(=O)ccc3cc2O1` (stereo not drawn), the cytotoxicity call in the test on HSkMC and with HepG2 was “inactive” each time. Besides, in the test on S. aureus RN4220, the growth inhibition call is “inactive”.

In the case of `Cc1noc(C)c1NC(=O)N(C)C[C@H]1Oc2c(NS(=O)(=O)c3cn(C)cn3)cccc2C(=O)N([C@H](C)CO)C[C@@H]1C`, the cytotoxicity call with HSkMC and in the test with HepG2 was “inactive” each time. Also, the growth inhibition call with S. aureus RN4220 is “inactive”.

For the compound `C[C@@H]1CN([C@H](C)CO)C(=O)c2cc(NS(=O)(=O)c3ccc(F)cc3)ccc2O[C@@H]1CN(C)S(C)(=O)=O`, the cytotoxicity call in the test on HSkMC and in the test with HepG2 was “inactive” in each case. The growth inhibition call in the test with S. aureus RN4220 is “inactive”.

As to `Cc1noc(C)c1NC(=O)Nc1cccc2c1O[C@@H](CN(C)Cc1ccc(Cl)c(Cl)c1)[C@H](C)CN([C@H](C)CO)C2=O`, the cytotoxicity call in the test on HSkMC and in the test on HepG2 was “inactive” in each case. Also, in the test on S. aureus RN4220, the growth inhibition call is “inactive”.

As for `Cc1ccc(S(=O)(=O)N(C)C[C@H]2Oc3ncc(Br)cc3C(=O)N([C@H](C)CO)C[C@H]2C)cc1`, the cytotoxicity call in the test with HSkMC and in the test on HepG2 was “inactive” each time. In addition, the growth inhibition call with S. aureus RN4220 is “inactive”.

`Cc1ccc(S(=O)(=O)N(C)C[C@H]2Oc3cc(C#Cc4ccncc4)ccc3S(=O)(=O)N([C@@H](C)CO)C[C@@H]2C)cc1`: in the test with HSkMC, the cytotoxicity call was “inactive”. Moreover, the cytotoxicity call in the test with HepG2 is “active”. Besides, the growth inhibition call in the test with S. aureus RN4220 is “inactive”.

For the compound `Cc1cc(C(=O)Nc2cccc3c2O[C@H](CN(C)C(=O)Nc2ccc4c(c2)OCO4)[C@@H](C)CN([C@H](C)CO)C3=O)n(C)n1`, the cytotoxicity call with HSkMC and with HepG2 was “inactive” throughout. Moreover, the growth inhibition call with S. aureus RN4220 is “inactive”.

Turning to `C[C@H]1CCCCO[C@H](CN(C)Cc2ccc3c(c2)OCO3)[C@@H](C)CN([C@@H](C)CO)C(=O)c2cc(NC(=O)Nc3ccc(F)cc3)ccc2O1`, in the test on HSkMC, the cytotoxicity call was “inactive”. Moreover, the cytotoxicity call in the test on HepG2 was “active”. In the test on S. aureus RN4220, the growth inhibition call was “inactive”.

Regarding `COc1ccc(S(=O)(=O)Nc2cccc3c2O[C@@H](CN(C)S(=O)(=O)c2ccc(F)cc2)[C@@H](C)CN([C@H](C)CO)C3=O)cc1`, the cytotoxicity call in the test with HSkMC and with HepG2 was “inactive” each time. The growth inhibition call in the test with S. aureus RN4220 is “inactive”.

As to `NC1(CC(=O)O)CCN(Cc2ccccc2)CC1`, the cytotoxicity call with HSkMC and in the test on HepG2 was “inactive” each time. For the same compound, the growth inhibition call with S. aureus RN4220 is “inactive”.

As to `Cc1ccccc1S(=O)(=O)N1C[C@H](O)COC[C@@H]2O[C@@H](CC(=O)NCc3ccccc3Cl)CC[C@H]21`, the cytotoxicity call in the test with HSkMC and with HepG2 was “inactive” throughout. Also, the growth inhibition call in the test on S. aureus RN4220 was “inactive”.

In the case of `COCCN[C@H]1CS(=O)(=O)C[C@@H]1O`, the cytotoxicity call in the test on HSkMC (human skeletal muscle cells) and with HepG2 was “inactive” in each case. Also, the growth inhibition call with S. aureus RN4220 is “inactive”.

For `C[C@@H]1CN([C@H](C)CO)C(=O)Cc2cc(NC(=O)Cc3cn(C)c4ccccc34)ccc2O[C@H]1CN(C)Cc1ccc(Cl)c(Cl)c1`, in the test with HSkMC, the cytotoxicity call was “active”. Further, the cytotoxicity call in the test with HepG2 was “inactive”. Further, the growth inhibition call in the test with S. aureus RN4220 was “inactive”.

Consider `O=C(C[C@@H]1CC[C@H]2[C@@H](COC[C@H](O)CN2Cc2ccccc2F)O1)N[C@H]1CCN(Cc2ccccc2)C1`, for which the cytotoxicity call in the test with HSkMC and with HepG2 was “inactive” in each case. The growth inhibition call in the test on S. aureus RN4220 is “inactive”.

For the compound `COc1ccc(N2C(=O)C[C@@H](N3CCCN([C@H]4CC(=O)N(c5ccc(OC)cc5)C4=O)CC3)C2=O)cc1`, the cytotoxicity call with HSkMC and with HepG2 was “inactive” in each case. Besides, the growth inhibition call with S. aureus RN4220 is “inactive”.

In the case of `O=C(Nc1ccc(Br)cc1)c1ccc(N2C(=O)c3ccc(C(=O)Nc4ccc(Br)cc4)cc3C2=O)cc1`, the cytotoxicity call with HSkMC and with HepG2 was “inactive” throughout. In addition, the growth inhibition call with S. aureus RN4220 was “inactive”.
